PubChem BioAssay AID1476 (National Center for Advancing Translational Sciences (NCATS), 2009)
About 4,500 (2.2%) of roughly 200,000 compounds were called active. The shares of active, inactive and inconclusive entries below differ from those in the screen. The call rests on the fitted dose curve; in most records, active means well fitted inhibition curve with a large enough effect; inconclusive means small, poorly fitted or top-dose-only effect, or effect the other way; inactive means flat fitted curve, though single readings scatter. A potency beside an inconclusive call is a rough fit, not a confirmed value.

What follows are compounds tested against Cruzipain (Trypanosoma cruzi) (UniProt P25779) (assay: qHTS Assay for Promiscuous and Specific Inhibitors of Cruzain (without detergent)). Details: purified cruzain, Z-FR-AMC fluorescence, no detergent.
Chain of UniProt P25779 (P25779 whole entry, looked up): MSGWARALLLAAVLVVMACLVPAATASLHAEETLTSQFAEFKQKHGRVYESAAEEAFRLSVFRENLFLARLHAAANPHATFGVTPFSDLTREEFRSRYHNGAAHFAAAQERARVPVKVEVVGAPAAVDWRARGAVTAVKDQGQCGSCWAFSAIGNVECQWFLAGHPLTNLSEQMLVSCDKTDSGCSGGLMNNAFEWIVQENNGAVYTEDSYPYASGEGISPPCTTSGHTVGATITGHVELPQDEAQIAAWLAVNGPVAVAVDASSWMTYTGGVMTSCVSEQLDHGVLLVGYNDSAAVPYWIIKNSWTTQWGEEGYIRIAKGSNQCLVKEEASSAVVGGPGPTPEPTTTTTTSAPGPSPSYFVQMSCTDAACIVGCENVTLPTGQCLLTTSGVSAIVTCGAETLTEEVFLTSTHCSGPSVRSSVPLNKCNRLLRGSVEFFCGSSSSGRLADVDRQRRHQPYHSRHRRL
Outline: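 Purified cruzain at 1.5 nM, pre-incubated 15 min with compound at room temperature in 100 mM sodium acetate pH 5.5, 5 mM DTT, 0.00005% Triton X-100. Reaction started with 2 uM Z-FR-AMC; AMC fluorescence increase over 60 s gives rate.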
Further: nearly all actives have a fitted effect of over 40% in size.
Potency means the concentration at half of the fitted maximal effect; tags describe the fitted curve by direction and shape.
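Wherever max response, negative = inhibition is given: plate controls were enzyme without inhibitor for no effect and buffer without enzyme for full effect.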

Row | Structure (SMILES) | Potency | max response, negative = inhibition
1 | CC(=O)c1cccc(NC(=O)C2CCCN(C(=O)c3cnn(-c4ccccc4)c3-n3cccc3)C2)c1 (centres undefined) | inconclusive: 39.8 µM [activator, single point] | –
2 | Cn1c2ccccc2c2cnn(CC(=O)N3CCN(c4cccc(C(F)(F)F)c4)CC3)c(=O)c21 | – | inactive: -0.658%
3 | CCOc1ccc(C(=O)Nc2cccc(NC(=O)c3ccc(C(C)(C)C)cc3)c2)cc1Br | active: 7.94 µM | –
4 | CC(C)(C)OC(=O)[C@H]1[C@H](c2ccc([N+](=O)[O-])cc2)C2(C(=O)c3ccccc3C2=O)C2c3ccccc3C=NN21 (some centres undefined) | inconclusive: 39.8 µM [inhibitor, single point] | –
5 | CCCCNc1ccc(-c2nc(-c3ccco3)no2)cc1[N+](=O)[O-] | inconclusive: 31.6 µM [activator, single point] | –
6 | COc1ccc(C2C(C(=O)OCC(=O)NC(C)(C)C)CCC(=O)N2c2ccc(C)cc2)cc1OC (centres undefined) | inconclusive: 15.8 µM [activator, single point] | –
7 | O=C(CCn1c2c(c3ccccc31)CCCC2)NNC(=O)c1ccc([N+](=O)[O-])cc1 | inconclusive: 31.6 µM [inhibitor, single point] | –
8 | CON(C)c1nc(OCCNC(=O)OCc2ccc(Cl)cc2C)nc(N(C)C)n1 | inconclusive: 39.8 µM [activator, single point] | –
9 | NCCSC[C@H](N)C(=O)O | – | inactive: 6.4%
10 | Cc1nn(-c2ccccc2)c2nc(-c3ccncc3)cc(C(=O)NCc3ccco3)c12 | inconclusive: 31.6 µM [activator, single point] | –
11 | O=S(=O)(c1ccc2c(c1)OCCO2)N1CCN(c2cccc(Cl)c2)CC1 | inconclusive: 39.8 µM [inhibitor, single point] | –
12 | COc1cccc(-c2nnc(SC(C(=O)c3c[nH]c4ccccc34)c3ccccc3)n2C)c1 (centres undefined) | inconclusive: 39.8 µM [inhibitor, single point] | –
13 | CCN(Cc1ccccc1)C(=O)Cn1c(=O)n(-c2cccc(C)c2)c(=O)c2c1c1cc(C)ccc1n2C | – | inactive: -3.95%
14 | C=CCc1ccccc1OCc1nc2ccccc2n1CC | – | inactive: -11.2%
15 | O=C(Cn1cc(C(F)(F)F)ccc1=O)NC(c1ccccc1)c1ccccc1 | inconclusive: 31.6 µM [inhibitor, single point] | –
16 | O=C(NC1CCCCCCC1)c1c(O)c2ccccc2[nH]c1=O | inconclusive: 10 µM [inhibitor, partial curve] | –
17 | O=C(Cn1ncc(Cl)c(Cl)c1=O)N1CCN(S(=O)(=O)c2ccc3ccccc3c2)CC1 | inconclusive: 39.8 µM [inhibitor, single point] | –
18 | Cc1ccc(NC(=O)COC(=O)/C=C/c2c(C)nn(-c3ccc(F)cc3)c2Cl)cc1F | inconclusive: 39.8 µM [inhibitor, single point] | –
19 | COc1ccc(-c2nnc3ccc(SC(C(C)=O)C(C)=O)nn23)cc1OC | inconclusive: 25.1 µM [activator, single point] | –
20 | CCOC(=O)C1CCN(C(=O)Cn2ncc3c4ccccc4n(Cc4ccc(F)cc4)c3c2=O)CC1 | inconclusive: 25.1 µM [activator, single point] | –

Row | Structure (SMILES) | Potency | max response, negative = inhibition
21 | O=C(CSC(=S)N1CCN(c2ccccc2)CC1)Nc1nc(-c2ccccc2)c(-c2ccccc2)o1 | inconclusive: 5.01 µM [inhibitor, full curve] | –
22 | O=S(=O)(Cc1ccccc1)N1CCc2ccccc2C1 | inconclusive: 39.8 µM [inhibitor, single point] | –
23 | Cc1nn(C)c(C)c1S(=O)(=O)N1CCCC(C(=O)N2CCN(c3ccccc3)CC2)C1 (centres undefined) | inconclusive: 31.6 µM [activator, single point] | –
24 | COc1ccc(C(=O)N2CCN(S(=O)(=O)c3ccc(C)cc3C)CC2)cc1OC | inconclusive: 39.8 µM [activator, single point] | –
25 | O=C(Cn1c(=O)n(Cc2ccco2)c(=O)c2c3c(sc21)CCCC3)Nc1ccccc1 | active: 25.1 µM | –
26 | O=C(OCC(=O)N1CCN(c2ccccc2)CC1)c1ccc2ncsc2c1 | inconclusive: 25.1 µM [inhibitor, single point] | –
27 | Clc1ccc2c(c1)C(c1ccccc1Cl)=NCc1nnc(N3CCN(CCOc4ccccc4)CC3)n1-2 | inconclusive: 31.6 µM [activator, single point] | –
28 | COc1ccc(C(=O)c2c(N)c(-c3nc(-c4ccc(OC)cc4)cs3)c3ccccn23)cc1 | inconclusive: 5.01 µM [inhibitor, full curve, poor fit] | –
29 | C/C(=N/NC(=O)c1ccc(C)s1)c1cccc(NC(=O)COc2ccc(Cl)cc2C)c1 | inconclusive: 39.8 µM [inhibitor, single point] | –
30 | O=C1Nc2ccccc2C(O)(C(=O)NCc2ccc3c(c2)OCO3)N1c1ccc(Cl)c(Cl)c1 (centres undefined) | inconclusive: 39.8 µM [inhibitor, single point] | –
31 | CC(C)COP(=O)(c1ccc(N(C)C)cc1)C(O)c1ccccc1F (centres undefined) | inconclusive: 25.1 µM [activator, single point] | –
32 | O=C(CSc1nnc(CNc2ccc(F)cc2)n1Cc1ccccc1)N1CCOCC1 | inconclusive: 31.6 µM [activator, single point] | –
33 | CCCCNc1nc(Oc2ccc(=O)n(C)n2)nc(N2CCOCC2)n1 | – | inactive: 6.77%
34 | COc1cccc(NC(=O)C(Sc2nnc(-c3ccncc3)n2-c2ccc(Cl)cc2)c2ccccc2)c1 (centres undefined) | inconclusive: 7.94 µM [activator, full curve] | –
35 | COC(=O)[C@@]1(Cc2ccc(F)cc2)[C@H]2c3cc(C(=O)N(C)C)n(Cc4ccsc4Br)c3C[C@H]2CN1C(=O)c1ccccc1 | inconclusive: 20 µM [activator, partial curve] | –
36 | COc1ncc2nc(-c3ccc(F)cc3)c(=O)n(C)c2n1 | – | inactive: 9.44%
37 | COc1cccc(Cn2c(=O)n(CCc3ccccc3)c(=O)c3c2c2cc(OC)ccc2n3C)c1 | – | inactive: -8.1%
38 | O=C(COC(=O)CCSc1ccccc1)Nc1ccc(F)cc1Cl | – | inactive: -12%
39 | CCC1=C(OC(=O)N(CC)CC)N2C(=O)OC(=NCCc3c[nH]c4ccccc34)[C@]2(Cc2ccccc2)[C@H]2C1=CC[C@H]1C(=O)N(CC)C(=O)[C@H]12 | inconclusive: 31.6 µM [activator, single point] | –
